# Test results: PubChem BioAssay (NCATS)
# Inconclusive results, whose numbers are uncertain, are shown with a selection of clear calls. For part of these data: A potency beside an inconclusive call is a rough fit, not a confirmed value. Activity calls are given as the source filed them. Unless noted, calls follow the shape of the dose curve; as a rule, active = well fitted curve in the direction sought with a large enough effect; inconclusive = small, poorly fitted or top-dose-only effect, or another doubt; inactive = no such curve, though single readings can be large; an effect the other way counts as inactive or inconclusive.
# Tests used:
# [1] = P-glycoprotein substrates identified in KB-8-5-11 adenocarcinoma cell line, qHTS therapeutic library screen (AID 1346987); also: potency is read from the fitted curve at half-maximal effect; nearly all actives have a fitted effect of over 65% in size
# Procedure, shortened: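 Compounds are pinned in dose-response onto KB-8-5-11 cells (500 cells/well, colchicine-free medium) and left 72 h at 37 degree C. CellTiter-Glo luminescence then yields AC50 values.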
# [2] = tested on: Zika virus NS2B-NS3 protease (unlinked complex); assay: Primary screen GU Rhodamine qHTS for Zika virus inhibitors: Unlinked NS2B-NS3 protease assay (AID 1347159); also: potency is read from the fitted curve at half-maximal effect; nearly all actives have a fitted effect of over 60% in size
# Procedure, shortened: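 Percent inhibition came from the 15-min rise in Rhodamine110 fluorescence (1.5 microM substrate, ~15% conversion), normalized to no-inhibitor and no-enzyme wells and Hill-fitted. Unlinked protease, 25 nM, pH 8.0 Tris buffer; compounds up to 114 microM, 15-min preincubation.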
# [3] = Primary qHTS for inhibitors of nuclear receptor binding SET domain protein 2 (NSD2) in an isogenic RCH-ACV NSD2 p.E1099K mutant (9B) (AID 1645876); also: potency is read from the fitted curve at half-maximal effect; nearly all actives have a fitted effect of over 70% in size
# [4] = tested on: HEK293; assay: Cytotoxic Profiling of Annotated Libraries Using Quantitative High-Throughput Screening (AID 1296008); settings: Five cell lines viability, CellTiter-Glo ATP luminescence, 48-72 h; max response: stronger effect = lower value; also: nearly all actives have a fitted effect of over 60% in size; also: potency is read from the fitted curve at half-maximal effect
# Procedure, shortened: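 Compounds were pin-transferred onto cells and incubated 48 or 72 hr at 37 degree Celsius, 95% humidity. CellTiter-Glo was added, plates sat 10 min at room temperature, then ATP-coupled luminescence was imaged as the viability read-out.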
# [5] = tested on: CAOV3; assay: Primary qHTS to identify gynecologic anti-cancer compounds using libraries of approved drugs and bioactive compounds (AID 1345084); settings: Gynecologic cancer cell panel viability, ATPlite luminescence, 48 h; activity change, negative = cytotoxicity: at 57.5 µM (top of the series); also: nearly all actives have a fitted effect of over 55% in size; also: potency is read from the fitted curve at half-maximal effect; as to activity change, negative = cytotoxicity: % is scaled to controls: 0 for no effect and ±100 for the full control effect
# Procedure, shortened: (§1)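 Cell viability after 48 h drug treatment, ATPlite luminescence readout; five doses.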
# [6] = tested on: Zika virus NS2B-NS3 protease (linked construct); assay: Primary screen NINDS Rhodamine qHTS for Zika virus inhibitors (AID 1347160); settings: activity change, negative = inhibition: at 57.1 µM (top of the series) unless noted; also: nearly all actives have a fitted effect of over 55% in size; as to activity change, negative = inhibition: % is scaled to controls: 0 for no effect and ±100 for the full control effect
# Procedure, shortened: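 Rhodamine110-peptide cleavage (1.5 µM substrate) by 25 nM linked NS2B-NS3 enzyme at pH 8.0 (Tris, Tween 20), after 15 min RT preincubation with compounds; 15-min fluorescence change normalized to controls and Hill-fitted.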
# [7] = tested on: SKOV3; assay: Primary qHTS to identify gynecologic anti-cancer compounds using libraries of approved drugs and bioactive compounds (AID 1345084); settings: Gynecologic cancer cell panel viability, ATPlite luminescence, 48 h; series mostly up to 57.5 µM; also: nearly all actives have a fitted effect of over 55% in size; also: potency is read from the fitted curve at half-maximal effect; as to activity change, negative = cytotoxicity: % is scaled to controls: 0 for no effect and ±100 for the full control effect
# Procedure, shortened: as §1
# [8] = Primary qHTS for inhibitors of nuclear receptor binding SET domain protein 2 (NSD2) in an RCH-ACV wild type WT cells (2C) (AID 1645877); settings: activity change, negative = cell killing: at 44.9 µM (top of the series) unless noted; also: nearly all actives have a fitted effect of over 70% in size; also: potency is read from the fitted curve at half-maximal effect; as to activity change, negative = cell killing: % is scaled to controls: 0 for no effect and ±100 for the full control effect
# [9] = molecular target: Cytochrome P450 2D6 (Homo sapiens) (UniProt P10635); assay: Cytochrome P450 family 2 subfamily D member 6 (CYP2D6) small molecule antagonists: luciferase biochemical (cell-free) qHTS assay (AID 1645840; active = well fitted curve in the direction sought with a large enough effect in the repeat runs; inconclusive = weak or mixed curves; inactive = no such curve, though single readings can be large; an effect the other way counts as inactive or inconclusive; also: potency is read from the fitted curve at half-maximal effect; nearly all actives have a fitted effect of over 55% in size)
# Chain of UniProt P10635 (P10635 whole entry, looked up): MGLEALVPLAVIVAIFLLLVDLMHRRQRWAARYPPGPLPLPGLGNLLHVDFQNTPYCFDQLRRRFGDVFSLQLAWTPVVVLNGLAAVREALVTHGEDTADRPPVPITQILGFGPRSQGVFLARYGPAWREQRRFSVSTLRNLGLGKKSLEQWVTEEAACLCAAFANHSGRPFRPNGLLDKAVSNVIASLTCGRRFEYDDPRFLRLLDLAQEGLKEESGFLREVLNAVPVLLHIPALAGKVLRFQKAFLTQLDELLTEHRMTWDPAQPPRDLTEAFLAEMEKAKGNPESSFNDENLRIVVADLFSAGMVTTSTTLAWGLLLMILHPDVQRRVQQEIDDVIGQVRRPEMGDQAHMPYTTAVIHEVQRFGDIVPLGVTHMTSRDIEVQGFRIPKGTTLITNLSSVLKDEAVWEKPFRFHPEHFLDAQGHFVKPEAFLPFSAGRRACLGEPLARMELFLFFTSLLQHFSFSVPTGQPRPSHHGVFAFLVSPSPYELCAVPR
# Procedure, shortened: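 P450-Glo CYP2D6 system: proluciferin substrate converted by enzyme to luciferin, read by luminescence proportional to activity. Enzyme-substrate mix with compound 10 min at room temperature, then NADPH regeneration 1 h before detection reagent.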
# [10] = molecular target: Cytochrome P450 2C9 (Homo sapiens) (UniProt P11712); assay: Cytochrome P450 family 2 subfamily C member 9 (CYP2C9) small molecule antagonists: luciferase biochemical (cell-free) qHTS assay (AID 1645842; active = well fitted curve in the direction sought with a large enough effect in the repeat runs; inconclusive = weak or mixed curves; inactive = no such curve, though single readings can be large; an effect the other way counts as inactive or inconclusive)
# Chain of UniProt P11712 (P11712 whole entry, looked up): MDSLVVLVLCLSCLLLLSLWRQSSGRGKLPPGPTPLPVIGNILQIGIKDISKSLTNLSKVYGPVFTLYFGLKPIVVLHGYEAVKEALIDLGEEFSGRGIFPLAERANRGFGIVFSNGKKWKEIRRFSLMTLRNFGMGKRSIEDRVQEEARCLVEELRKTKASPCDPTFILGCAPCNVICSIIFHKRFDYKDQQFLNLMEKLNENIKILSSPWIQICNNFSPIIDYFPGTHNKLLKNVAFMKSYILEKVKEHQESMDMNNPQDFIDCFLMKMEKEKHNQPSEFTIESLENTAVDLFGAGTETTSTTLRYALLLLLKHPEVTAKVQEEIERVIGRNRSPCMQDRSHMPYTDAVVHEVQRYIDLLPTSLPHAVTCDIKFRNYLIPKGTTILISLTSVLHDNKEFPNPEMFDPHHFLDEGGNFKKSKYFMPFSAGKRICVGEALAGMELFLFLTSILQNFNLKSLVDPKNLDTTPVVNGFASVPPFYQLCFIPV
# Procedure, shortened: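 P450-Glo CYP2C9 system: proluciferin substrate with enzyme in mix containing 0.4% BSA, 10 min at room temperature, then NADPH regeneration solution added and incubated 1 h at 37C. Detection reagent stopped reaction; luminescence read after 20 min as RLU.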
# [11] = Primary fluorescence-based thiol-reactive (MSTI) qHTS assay for identification of artifact compounds. (AID 1845221); also: potency is read from the fitted curve at half-maximal effect;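 also: thiol-reactive compounds lower the probe fluorescence signal; nearly all actives have a fitted effect of over 65% in size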
# Procedure, shortened: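 Probe: MSTI 4 uM, PBS pH 7.4, 2% DMSO. Incubation 1 h, RT, light-protected. Readout fluorescence 525/598 nm.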
# [12] = Primary redox qHTS assay for identification of artifact compounds. (AID 1845223); settings: Amplex Red/HRP redox cycling with DTT, fluorescence; redox activity (% of DA3003): at 53.8 µM (top of the series);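 also: 0% = DMSO and 100% = reference compound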
# Procedure, shortened: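 Redox-cycling detection via DTT (250 uM final) oxidation coupled to Amplex Red (25 uM)/HRP (250 mU/mL) in HBSS. 15 min preincubation plus 30 min after DTT, room temperature. Ex/Em 525/598 nm; 4-parameter Hill fit against DMSO and 10 uM DA3003.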
# Tags tell the direction and shape of the fitted curve.
smiles,measurement,setting,value
C=C[C@](C)(O)CC[C@H]1C(C)=CC(=O)[C@H]2C(C)(C)CCC[C@]12C,Potency,[1],"inconclusive: 10.3 µM [inhibitor, partial curve]"
same,Potency,[2],"inconclusive: 39.8 µM [inhibitor, partial curve]"
same,Potency,[3],"inconclusive: 23 µM [inhibitor, partial curve]"
same,Potency,[4],"inconclusive: 7.31 µM [inhibitor, partial curve, poor fit]"
same,Potency,[5],inactive
CC1CCC2(C(=O)OC3OC(COC4OC(CO)C(O)C(O)C4O)C(O)C(O)C3O)CCC3(C)C(=CCC4C5(C)CCC(O)C(C)(C(=O)O)C5CCC43C)C2C1(C)O (stereo not drawn),Potency,[6],inactive
same,outcome,[4],inactive
same,"activity change, negative = cytotoxicity",[5],inactive: 16.9% [at 11.6 µM]
same,Potency,[7],"inconclusive: 1 µM [rising, partial curve, poor fit]"
CC(C)CCNc1ncccc1C(=O)N1CCN(Cc2ccccc2)CC1,Potency,[8],inactive
same,Potency,[4],"inconclusive: 29.1 µM [inhibitor, partial curve, poor fit]"
same,Potency,[5],inactive
Fc1ccc2c(CCNCc3cccc(OCC(F)(F)C(F)F)c3)c[nH]c2c1,Potency,[1],"inconclusive: 25.9 µM [inhibitor, partial curve, poor fit]"
same,Potency,[9],active: 0.0477 µM
same,Potency,[10],active: 9.52 µM
same,Potency,[3],"inconclusive: 29 µM [inhibitor, single point]"
same,Potency,[8],"inconclusive: 25.8 µM [inhibitor, single point]"
same,Potency,[4],"inconclusive: 29.1 µM [inhibitor, single point]"
same,Potency,[5],inactive
same,Potency,[7],inactive
CC1=C2C(=O)C=C(CO)C2[C@H]2OC(=O)[C@H](C)[C@@H]2[C@@H](OC(=O)Cc2ccc(O)cc2)C1 (stereo partly drawn),Potency,[2],"inconclusive: 22.4 µM [inhibitor, partial curve, poor fit]"
same,Potency,[8],inactive
same,Potency,[11],"inconclusive: 10.3 µM [inhibitor, partial curve]"
same,max response,[4],inactive: -2.2%
same,Potency,[5],inactive
same,Potency,[7],inactive
Cc1cc(C)c(-n2cc(C)c3c(Cl)nc(C)nc32)c(C)c1,Potency,[6],inactive
same,Potency,[3],"inconclusive: 20.5 µM [inhibitor, single point]"
same,Potency,[8],inactive
same,Potency,[11],inactive
same,Potency,[12],inactive
same,Potency,[4],"inconclusive: 29.1 µM [inhibitor, single point]"
same,Potency,[5],"inconclusive: 8.91 µM [cytotoxic, single point]"
